Here are results for 57 compounds from PMC4336329 (PLoS ONE, 2015).

Out of some 310,000 compounds screened, about 14,000 (4.5%) showed an effect of 50% or more. The effect is printed as a negative number. The list shows a part of the results.
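Further: peak tail current of the secondary pulse compared with the same well before compound.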

human ether-à-go-go-related gene (hERG) potassium channel, sequence (Q12809 whole entry, looked up): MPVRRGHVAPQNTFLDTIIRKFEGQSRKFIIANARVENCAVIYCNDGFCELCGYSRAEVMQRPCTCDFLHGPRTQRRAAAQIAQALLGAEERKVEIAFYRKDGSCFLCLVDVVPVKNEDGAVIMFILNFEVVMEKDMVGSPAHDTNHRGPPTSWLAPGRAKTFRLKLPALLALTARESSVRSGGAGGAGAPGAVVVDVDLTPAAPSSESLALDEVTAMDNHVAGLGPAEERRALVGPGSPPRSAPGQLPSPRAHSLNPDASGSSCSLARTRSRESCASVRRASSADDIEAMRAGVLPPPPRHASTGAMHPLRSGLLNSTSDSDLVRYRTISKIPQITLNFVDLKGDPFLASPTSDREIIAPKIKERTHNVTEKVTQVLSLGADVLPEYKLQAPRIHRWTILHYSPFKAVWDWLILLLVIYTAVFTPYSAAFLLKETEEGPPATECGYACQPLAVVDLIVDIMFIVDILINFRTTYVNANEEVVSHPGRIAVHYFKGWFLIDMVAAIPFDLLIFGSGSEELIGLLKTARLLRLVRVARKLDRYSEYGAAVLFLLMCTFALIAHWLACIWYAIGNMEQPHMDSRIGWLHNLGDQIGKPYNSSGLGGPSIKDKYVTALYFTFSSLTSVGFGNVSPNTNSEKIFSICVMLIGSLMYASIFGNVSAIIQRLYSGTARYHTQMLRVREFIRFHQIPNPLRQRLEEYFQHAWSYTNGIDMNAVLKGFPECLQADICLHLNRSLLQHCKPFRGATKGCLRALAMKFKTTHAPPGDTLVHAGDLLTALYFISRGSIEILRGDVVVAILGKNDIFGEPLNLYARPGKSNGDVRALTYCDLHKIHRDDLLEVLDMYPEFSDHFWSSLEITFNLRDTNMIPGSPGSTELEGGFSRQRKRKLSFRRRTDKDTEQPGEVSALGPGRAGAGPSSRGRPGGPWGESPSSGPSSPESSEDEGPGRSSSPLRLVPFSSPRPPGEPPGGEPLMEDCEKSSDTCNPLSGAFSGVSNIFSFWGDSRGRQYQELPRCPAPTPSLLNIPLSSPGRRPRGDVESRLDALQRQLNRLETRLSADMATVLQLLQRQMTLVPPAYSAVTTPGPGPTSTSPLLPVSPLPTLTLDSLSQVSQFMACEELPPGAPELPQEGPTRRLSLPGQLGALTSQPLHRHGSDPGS

This experiment has as its target human ether-à-go-go-related gene (hERG) potassium channel (human, UniProt Q12809). The experiment in a line: primary screen, population patch clamp on CHO cells stably expressing hERG.
For `O=C(Nc1ccc(Cl)c(Cl)c1)c1csc(-c2ccccc2)n1`, the “hERG current change (%, negative = inhibition) at 10uM” value amounted to 6.39%.
With `CCCN1CCN(S(=O)(=O)c2ccc3c(c2)OCCO3)CC1` the figure was 3.25%; with `N#Cc1ccc(-c2cccnc2)nc1SCc1ccc(Cl)cc1Cl`, 13.2%.
The figure for `COCCCNCCOc1ccccc1-c1ccccc1.O=C(O)C(=O)O` is -9.67%.
The figure for `CCN(CC)C(=O)C1CCN(S(=O)(=O)c2ccc3oc4ccccc4c3c2)CC1` is 16.4%; for `NC(=O)COC(=O)CCCSc1nc2ccccc2s1` it is 20%; for `Cc1ccc(NC2=C(Cl)C(=O)OC2OC(=O)c2ccccc2)c(C)c1` (stereo not drawn) it is 2.44%.
Regarding `CC(C)(C)CC(C)(C)NC(=O)c1ccc2snnc2c1`, the “hERG current change (%, negative = inhibition) at 10uM” value is listed as -13.6%.
With `COc1ccc(C(=O)Nc2c(C)ccc3nsnc23)cc1[N+](=O)[O-]` the figure was -3.17%; with `O=C(CSc1ncc(-c2ccc(F)cc2)n1Cc1ccco1)Nc1nccs1`, 3.33%.
With `Cc1onc(-c2ccccc2Cl)c1C(=O)N1CCN(S(=O)(=O)c2ccc(F)c(F)c2)CC1` the figure was 10.4%; with `CCCCCn1c(=O)[nH]c2cc(C(=O)O)ccc2c1=O`, 21.4%; with `COc1ccccc1NS(=O)(=O)c1cc(-c2cc(C)no2)ccc1OC`, -5.52%.
With `Cc1ccnc(NC(=O)c2c(-c3ccccc3Cl)noc2C)c1` the figure was 6.04%.
`Cc1ccc(NC(=O)Cn2ccc(=O)[nH]c2=O)cc1`: the “hERG current change (%, negative = inhibition) at 10uM” value is reported as 28.4%.
For `CCOc1ccc(CCNC(=O)c2ccc(C)c(NC3=NC4CS(=O)(=O)CC4S3)c2)cc1` (stereo not drawn), the “hERG current change (%, negative = inhibition) at 10uM” value was determined as 24.4%.
The figure for `Cn1ncc2c(Nc3cccc(C(=O)O)c3)ncnc21` is 6.66%.
In the case of `COc1ccc(NC(=O)CSc2nnnn2C)cc1S(=O)(=O)N1CCCCC1`, the “hERG current change (%, negative = inhibition) at 10uM” value is reported as 2.56%.
As for `Cc1ccccc1NC(=O)CSc1nc2ccccc2o1`, the “hERG current change (%, negative = inhibition) at 10uM” value is on record as -3.95%.
Turning to `CN1CCN(c2ccc(S(=O)(=O)N3CCCCC3)cc2[N+](=O)[O-])CC1`, the “hERG current change (%, negative = inhibition) at 10uM” value was -48%.
For the compound `Cc1ccc(OCc2cc(C(=O)Nc3ccccc3)oc2C)cc1`, the “hERG current change (%, negative = inhibition) at 10uM” value was 8.38%.
In the case of `O=S(=O)(c1ccccc1)N(Cc1ccccn1)Cc1ccccn1`, the “hERG current change (%, negative = inhibition) at 10uM” value came to 12.8%.
Consider `O=C(NCCCN1CCCC1=O)Nc1cc(Cl)ccc1Cl`, for which the “hERG current change (%, negative = inhibition) at 10uM” value was 10.8%.
As to `O=C(/C=C/c1ccc(Cl)cc1Cl)NCCN1CCOCC1`, the “hERG current change (%, negative = inhibition) at 10uM” value is on record as -28.7%.
Turning to `Cc1ccc(CN2CC(C(=O)NCCC3=CCCCC3)CC2=O)cc1` (stereo not drawn), the “hERG current change (%, negative = inhibition) at 10uM” value is listed as -19.6%.
The figure for `CCCCNS(=O)(=O)c1ccc2nc(-c3cccnc3)cc(C(=O)NCC(OC)OC)c2c1` is -2.03%; for `O=c1c2ccc(Cl)cc2nc(-c2cccc(C(F)(F)F)c2)n1O` it is -4.56%.
With `COc1cccc(C(=O)C2CCCN(Cc3cn(C)nc3-c3ccccc3)C2)c1` (stereo not drawn), the “hERG current change (%, negative = inhibition) at 10uM” value is -68.8%.
As to `COc1cccc2cc(C(=O)Nc3ccccc3C)/c(=N/NS(=O)(=O)c3ccccc3)oc12`, the “hERG current change (%, negative = inhibition) at 10uM” value turned out to be 18.2%.
As to `CCC(CO)NCc1ccc(OCC(=O)Nc2cccc(C(F)(F)F)c2)c(OC)c1` (stereo not drawn), the “hERG current change (%, negative = inhibition) at 10uM” value is on record as -43.6%.
The figure for `COc1ccc(S(=O)(=O)N2CCC(N3CCCC3)CC2)cc1` is 22.3%.
On to `CC/C(=N\NC(=O)Nc1ccccc1)c1ccccc1`, for which the “hERG current change (%, negative = inhibition) at 10uM” value is recorded as -9.51%.
With `O=C(NCCCN1CCOCC1)c1ccc(-c2ccc(Cl)cc2)o1` the figure was -55.1%; with `Cc1ccc(Cl)cc1Nc1nc(-c2sc(NC(=O)c3ccco3)nc2C)cs1`, 3.48%.
With `CCCCn1c(C(C)NC(=O)COC)nc2ccccc21` (stereo not drawn) the figure was -23.5%.
For `Cc1cccc(Oc2cnn(C(C)(C)C)c(=O)c2Cl)c1`, the “hERG current change (%, negative = inhibition) at 10uM” value is recorded as -10%.
With `CCCCCCN(CCCCCC)C(=O)Cc1c(-c2ccc(F)cc2)[nH]c2ccccc12`, the “hERG current change (%, negative = inhibition) at 10uM” value was found to be 20%.
The figure for `Cc1cc(-c2csc(N)n2)c(C)n1-c1ccccc1` is -9.56%; for `O=C(CNC(=O)c1ccco1)OCc1ccc(Br)cc1` it is 2.8%.
With `O=C(CN1C(=O)c2ccccc2C1=O)Nc1cccc(Cl)c1` the figure was 4.39%.
Regarding `COc1ccc(-n2nnnc2-c2cnc3cc4c(cc3c2C)OCO4)cc1`, the “hERG current change (%, negative = inhibition) at 10uM” value was -5.1%.
In the case of `COc1ccc(-c2nn(-c3ccccc3)cc2/C=N/N=C(N)N)cc1OC`, the “hERG current change (%, negative = inhibition) at 10uM” value is -27.8%.
With `COc1c(O)cccc1/C=N/NC(=O)Cn1ccnc1C` the figure was 8.88%; with `Cc1ccc(NC(=O)COC(=O)c2cc(Cl)ccc2[N+](=O)[O-])c(C)c1`, 1.37%; with `Cc1ccc(CSc2ncnc3ccccc23)cc1`, 11.3%.
With `CCn1c(C(=O)N2CCc3ccccc3C2)cc2oc3ccccc3c21`, the “hERG current change (%, negative = inhibition) at 10uM” value came to 16%.
With `CCCc1cc(=O)n2[nH]c(NCc3cccs3)nc2n1` the figure was 11.5%.
Consider `CCCCOC(=O)C1=C(C)Nc2ncnn2C1c1cc(OC)ccc1OC` (stereo not drawn), for which the “hERG current change (%, negative = inhibition) at 10uM” value is listed as -13.9%.
Regarding `COc1ccc(CNC(=O)c2nn(C)c3c2CS(=O)(=O)c2ccccc2-3)cc1`, the “hERG current change (%, negative = inhibition) at 10uM” value was -24.5%.
For the compound `COc1cc2nc(N(CCCN(C)C)C(=O)c3ccc(S(=O)(=O)N4CCc5ccccc5C4)cc3)sc2cc1OC.Cl`, the “hERG current change (%, negative = inhibition) at 10uM” value is -9.41%.
On to `CN(CC(=O)Nc1ccccc1[N+](=O)[O-])Cc1ccc(Br)cc1`, for which the “hERG current change (%, negative = inhibition) at 10uM” value is reported as 6.13%.
With `COC(=O)c1ccccc1NC(=O)COC(=O)CO/N=C(\C)c1ccc2c(c1)OCO2` the figure was 21%; with `c1coc(-c2nc3nc4ccccc4nc3n2CC2CCCO2)c1` (stereo not drawn), -21.1%.
With `CCN(CCCNC(=O)CNC(=O)Cn1cnc2ccccc2c1=O)c1cccc(C)c1` the figure was -4.04%; with `C=CCN=C1CC(C)(C)CC(=O)/C1=C(/O)CCC(=O)OC`, 16.9%; with `CC1(C)CC(NC(=O)c2cccc(Cl)c2)CC(C)(C)N1`, 6.71%.
The figure for `O=C(/C=C/c1ccccc1)Nc1cccc(S(=O)(=O)Nc2ccccc2F)c1` is 26.3%.
